The results in this text go back to paper PMC3681933.

Chains of the proteins cited; added tags and fusions are not shown.
UniProt P19073: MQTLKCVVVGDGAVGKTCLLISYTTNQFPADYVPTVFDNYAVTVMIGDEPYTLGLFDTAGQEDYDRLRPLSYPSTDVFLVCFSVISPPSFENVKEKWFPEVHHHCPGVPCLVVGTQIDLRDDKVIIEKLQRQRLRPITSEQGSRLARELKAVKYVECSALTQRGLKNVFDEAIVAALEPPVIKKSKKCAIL

Test [1] deals with T1, GST-Boi1 (S. cerevisiae) (UniProt P38041).
T1 sequence: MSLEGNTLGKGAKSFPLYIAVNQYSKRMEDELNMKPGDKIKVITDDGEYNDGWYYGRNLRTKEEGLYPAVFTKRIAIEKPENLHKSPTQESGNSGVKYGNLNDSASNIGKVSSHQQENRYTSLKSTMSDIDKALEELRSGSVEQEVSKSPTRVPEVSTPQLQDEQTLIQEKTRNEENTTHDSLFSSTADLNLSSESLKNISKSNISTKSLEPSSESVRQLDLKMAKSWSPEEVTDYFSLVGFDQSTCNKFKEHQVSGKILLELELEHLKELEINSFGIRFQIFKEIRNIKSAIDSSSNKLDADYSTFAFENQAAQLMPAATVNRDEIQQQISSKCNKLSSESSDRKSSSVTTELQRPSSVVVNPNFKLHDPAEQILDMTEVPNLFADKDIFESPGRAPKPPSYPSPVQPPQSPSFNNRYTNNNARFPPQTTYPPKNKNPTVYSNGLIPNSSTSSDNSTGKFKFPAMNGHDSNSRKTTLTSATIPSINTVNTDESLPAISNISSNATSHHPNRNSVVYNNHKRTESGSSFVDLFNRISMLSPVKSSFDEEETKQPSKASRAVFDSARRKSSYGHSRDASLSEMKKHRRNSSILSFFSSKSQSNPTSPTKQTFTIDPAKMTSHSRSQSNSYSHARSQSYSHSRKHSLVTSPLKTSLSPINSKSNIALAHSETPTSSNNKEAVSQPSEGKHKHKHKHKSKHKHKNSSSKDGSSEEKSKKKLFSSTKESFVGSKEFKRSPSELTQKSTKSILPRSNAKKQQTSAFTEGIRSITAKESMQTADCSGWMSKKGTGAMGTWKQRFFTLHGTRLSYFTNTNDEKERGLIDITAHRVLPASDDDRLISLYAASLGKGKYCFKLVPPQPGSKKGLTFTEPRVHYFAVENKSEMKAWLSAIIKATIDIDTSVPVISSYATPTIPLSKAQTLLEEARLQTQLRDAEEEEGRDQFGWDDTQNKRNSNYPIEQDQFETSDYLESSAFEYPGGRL
Kind of test: condition: only in cells with endogenous BOI1 and BOI2 (strain YEF1395); pull-down; GST or GST fusions induced with 2% galactose for 4 h in yeast co-expressing 3HA-Msb1 (strains YEF473A wild type or YEF1395 msb1Δ, endogenous BOI1 and BOI2 present); glutathione-Sepharose beads from Triton X-100-solubilized cell lysates; anti-HA blot.

Test [2] has as its target T2, GST-Boi1-C (aa 414-980) (S. cerevisiae) (UniProt P38041).
T2 sequence: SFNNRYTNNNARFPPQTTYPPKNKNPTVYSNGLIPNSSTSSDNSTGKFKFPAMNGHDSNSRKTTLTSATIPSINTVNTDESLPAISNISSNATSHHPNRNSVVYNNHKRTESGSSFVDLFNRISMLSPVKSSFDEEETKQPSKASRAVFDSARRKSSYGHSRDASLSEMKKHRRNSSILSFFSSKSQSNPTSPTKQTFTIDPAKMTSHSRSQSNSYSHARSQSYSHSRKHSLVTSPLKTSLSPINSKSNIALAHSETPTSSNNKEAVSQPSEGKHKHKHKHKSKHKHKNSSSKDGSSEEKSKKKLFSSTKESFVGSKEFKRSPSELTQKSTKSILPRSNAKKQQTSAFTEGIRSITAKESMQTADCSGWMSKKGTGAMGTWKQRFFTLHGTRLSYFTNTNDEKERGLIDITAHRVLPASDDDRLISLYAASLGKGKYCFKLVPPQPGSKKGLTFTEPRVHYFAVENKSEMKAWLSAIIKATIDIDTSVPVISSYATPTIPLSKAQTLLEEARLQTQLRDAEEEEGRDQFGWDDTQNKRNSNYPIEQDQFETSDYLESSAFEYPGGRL
Kind of test: pull-down; as a1, but in yeast strains that lack BOI1 and/or BOI2: JGY2425 (boi1Δ), JGY2349 (boi2Δ) or JGY2821 (boi1Δ boi2Δ); glutathione-Sepharose beads from cell lysates; anti-HA blot.

Test [3] deals with GST-Cdc42 (WT) (S. cerevisiae) (UniProt P19073). The description is as above.
Test [4] has as its target T3, GST-Boi2-C (aa 459-1040) (S. cerevisiae) (UniProt P39969).
T3 sequence: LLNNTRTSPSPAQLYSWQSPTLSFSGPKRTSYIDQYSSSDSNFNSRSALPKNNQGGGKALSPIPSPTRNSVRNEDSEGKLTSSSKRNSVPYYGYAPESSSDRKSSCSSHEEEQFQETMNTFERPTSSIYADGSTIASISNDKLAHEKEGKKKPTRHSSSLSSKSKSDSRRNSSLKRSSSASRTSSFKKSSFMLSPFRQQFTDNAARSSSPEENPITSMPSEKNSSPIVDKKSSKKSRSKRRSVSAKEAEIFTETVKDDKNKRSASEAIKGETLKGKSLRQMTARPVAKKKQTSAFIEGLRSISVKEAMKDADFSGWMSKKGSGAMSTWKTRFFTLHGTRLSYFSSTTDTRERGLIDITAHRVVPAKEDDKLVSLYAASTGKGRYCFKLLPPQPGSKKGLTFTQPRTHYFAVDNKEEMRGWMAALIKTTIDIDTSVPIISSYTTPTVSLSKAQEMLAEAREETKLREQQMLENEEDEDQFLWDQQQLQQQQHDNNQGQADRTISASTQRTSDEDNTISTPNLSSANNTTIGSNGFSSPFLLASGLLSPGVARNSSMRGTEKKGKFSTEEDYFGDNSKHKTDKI
Described as above.

Test [5] has as its target T1, GST-Boi1 (S. cerevisiae). The test is described as above.

No constants are given. Whether binding was seen depends on the method and setting. In cells and extracts the contact can be indirect. Some entries that bind do so weakly or less than the wild type. Tags and fused reporters may be left off the sequences shown.

B1: Msb1 tagged with three copies of HA at its N-terminus (protein, UniProt P21339 1-1137)
chain: MNDMAKPLPTPPTAEIRKSRSNSPKKAQKTNLSPNKNQNNEKNVPRSNGRTKNEHNSMDDEEFEFFHQFSREKVKGVIHVITAELKEKGPDVEFLMIPFRPEQTNDKLLTLLNQLFPLGNGQPVNEKKQLRIVSKADVWTLFQCLKYIWCRLPNSEIIGWKSYLEFKFREEDKKFPRKSFLEIMPQCLASPNHASIVYDFFDLIISISSNSRVNKMSARKISKMCAIWAFSKQIPNSDIQDYDFESAAMKSFAPNNSIQDGLDQWIPASDAMFHLLLAFLRSFVPQDLESAKLPRTLKSLLFNNQYPPRKSTAYTSETILTIPLVTLKTDVFSRKPWQLLERCNDLLDFSDHDAFEAREDYALLKSLFRKKNTVEGISRKMSQESRRLMKAMSTKHSTFQPGWAPRECIENISHLKECIEVKRLDIDDYFIWTWLSSLSFEQTSEKKKIFGRSIILEFEFDGFKKWVVFQECDITLDYNKKGQLKKKTSAQSPTTEKELPPDDFELEDPPLSKSPTLSQTYKKFQAEVPQQSTVRRDSAPDNQGIYHTVISKNALTKNKHNVNLHSFEHKISKWNPLNNLRKKSGSNSSSSSFEEKSKDAPIREEYHTNKNHKSKKEERVLSQFSTLNPDEYQLPVIETGSSNFKIEIPELMYEHDDDDSDKLKNSQKRATDSAIEELNGMVEEMMINEPDDVKISITEAETFESLTKFDQYKPSNITDDDLQSSHSSAVHSLKLSTNTNDSCADSSKYTADRKLAEPRKISEESKVNDDSSSYYSPNINNLPASRMPSQPTYSNSDSKKAFTNESRLNVLQGAVSPSQQVTPKPYKNAPGDCVSPVQQKYYQNDRRNEMSPASAPVPPSAYSPARSPQFSTNSAGFKQNTINVPVGYNDPAHVLANQPHMTYRDQHNYPSHQQKQRPFQNNIVPPELKSRNQRADASPIPQHMVPVKQGVPNLPSNVPLYQQMERMNPNHQHPVNTYKVTQPPYHNNTTNAYGNSRAGNAHMLDGKWSNNPPQMVPKGVRPNQYPQQHVNRYSPQAQPVVPAEYYNGPPPMRAPPMMSHMVPAQEPIRYTAGANRRSFPQGMQQNAYSVPAQPMGAVNSEFYLPEAPQGNKLHGNINKRQERKKLYDNIRSGNFGI
On to B1, for which the binding entry is “no binding” in test [1]; “binds” in test [2]; “binds” in test [3]; “binds” in test [4]; “binds” in test [5].
